Assay results from the antibiotic and cytotoxicity screens of Wong et al. (2023).
This is one part of the list.

system: HepG2; assay: cytotoxicity call (relative viability < 0.9); conditions: 10 µM

| SMILES | cytotoxicity call |
| --- | --- |
| C[C@@H]1CN([C@@H](C)CO)C(=O)Cc2cc(NC(=O)c3ccncc3)ccc2O[C@@H]1CN(C)Cc1ccc2c(c1)OCO2 | inactive |
| C[C@@H]1CN([C@H](C)CO)C(=O)Cc2cc(N(C)C)ccc2O[C@@H]1CN(C)S(=O)(=O)c1ccc(F)cc1 | inactive |
| Cc1ccc(S(=O)(=O)N[C@H]2CC[C@@H](CC(=O)N3CCC(Cc4ccccc4)CC3)O[C@H]2CO)cc1 | inactive |
| C[C@H](CO)N1C[C@H](C)[C@@H](CN(C)C(=O)c2ccncc2)OCCCC[C@H](C)Oc2ccc(NC(=O)C3CCCCC3)cc2C1=O | inactive |
| COc1ccc(NC(=O)N(C)C[C@@H]2OCCCC[C@@H](C)Oc3ccc(NS(=O)(=O)c4ccc(OC)cc4)cc3C(=O)N([C@H](C)CO)C[C@H]2C)cc1 | inactive |
| O=C(C[C@@H]1C[C@H]2c3cc(NS(=O)(=O)c4ccccc4)ccc3O[C@H]2[C@H](CO)O1)NC1CCCCC1 | inactive |
| Cc1ccc(-n2nnc(C(N)=O)c2C)cc1 | inactive |
| C=c1cc(C)cc(C)c1=C1NN=C(N)S1 | inactive |
| C[C@@H]1CN([C@@H](C)CO)C(=O)c2cc(NC(=O)Cn3cnnn3)ccc2O[C@@H]1CN(C)Cc1ccccc1 | inactive |
| Cc1ccc(S(=O)(=O)Nc2cccc3c2O[C@H](CN(C)Cc2ccc(C(F)(F)F)cc2)[C@@H](C)CN([C@H](C)CO)C3=O)cc1 | inactive |
| OCC(O)C(O)C(OC1OC(CO)C(O)C(O)C1O)C(O)CO (configuration not stated) | inactive |
| C[C@H]1CCCCO[C@H](CN(C)C(=O)c2ccccc2)[C@@H](C)CN([C@@H](C)CO)C(=O)c2cc(NS(=O)(=O)c3ccccc3)ccc2O1 | inactive |
